Test results: PubChem BioAssay AID1347165 (National Center for Advancing Translational Sciences (NCATS), 2019)
The campaign covered roughly 220,000 compounds. About 5,700 (2.6%) were called active. The shares of active, inactive and inconclusive entries below differ from those in the screen. Calls follow the shape of the dose curve; as a rule, active = well fitted inhibition curve with a large enough effect; inconclusive = small, poorly fitted or top-dose-only effect; inactive = no such curve, though single readings can be large or run the other way. A potency beside an inconclusive call is a rough fit, not a confirmed value.

Molecular target: Lysine-specific demethylase 5B (Homo sapiens) (UniProt Q9UGL1)
Experiment: Primary screen for KDM5B Histone Demethylases FDH-coupled qHTS; also: nearly all actives have a fitted effect of over 70% in size
Settings: FDH-coupled NADH fluorescence (FDH is formaldehyde dehydrogenase); series mostly up to 57.7 µM
Procedure, shortened: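 Measured: NADH fluorescence change, 30 min, RT. System: KDM5BΔAP 200 nM final, H3K4me3 peptide, α-KG, Fe(II), ascorbate, NAD⁺ plus FDH, pH 7.5 HEPES. Compounds: titrated, 10 min pre-incubation with enzyme.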
Potency is read from the fitted curve at half-maximal effect; tags tell the direction and shape of the fitted curve.

Chain of UniProt Q9UGL1 (Q9UGL1 whole entry, looked up): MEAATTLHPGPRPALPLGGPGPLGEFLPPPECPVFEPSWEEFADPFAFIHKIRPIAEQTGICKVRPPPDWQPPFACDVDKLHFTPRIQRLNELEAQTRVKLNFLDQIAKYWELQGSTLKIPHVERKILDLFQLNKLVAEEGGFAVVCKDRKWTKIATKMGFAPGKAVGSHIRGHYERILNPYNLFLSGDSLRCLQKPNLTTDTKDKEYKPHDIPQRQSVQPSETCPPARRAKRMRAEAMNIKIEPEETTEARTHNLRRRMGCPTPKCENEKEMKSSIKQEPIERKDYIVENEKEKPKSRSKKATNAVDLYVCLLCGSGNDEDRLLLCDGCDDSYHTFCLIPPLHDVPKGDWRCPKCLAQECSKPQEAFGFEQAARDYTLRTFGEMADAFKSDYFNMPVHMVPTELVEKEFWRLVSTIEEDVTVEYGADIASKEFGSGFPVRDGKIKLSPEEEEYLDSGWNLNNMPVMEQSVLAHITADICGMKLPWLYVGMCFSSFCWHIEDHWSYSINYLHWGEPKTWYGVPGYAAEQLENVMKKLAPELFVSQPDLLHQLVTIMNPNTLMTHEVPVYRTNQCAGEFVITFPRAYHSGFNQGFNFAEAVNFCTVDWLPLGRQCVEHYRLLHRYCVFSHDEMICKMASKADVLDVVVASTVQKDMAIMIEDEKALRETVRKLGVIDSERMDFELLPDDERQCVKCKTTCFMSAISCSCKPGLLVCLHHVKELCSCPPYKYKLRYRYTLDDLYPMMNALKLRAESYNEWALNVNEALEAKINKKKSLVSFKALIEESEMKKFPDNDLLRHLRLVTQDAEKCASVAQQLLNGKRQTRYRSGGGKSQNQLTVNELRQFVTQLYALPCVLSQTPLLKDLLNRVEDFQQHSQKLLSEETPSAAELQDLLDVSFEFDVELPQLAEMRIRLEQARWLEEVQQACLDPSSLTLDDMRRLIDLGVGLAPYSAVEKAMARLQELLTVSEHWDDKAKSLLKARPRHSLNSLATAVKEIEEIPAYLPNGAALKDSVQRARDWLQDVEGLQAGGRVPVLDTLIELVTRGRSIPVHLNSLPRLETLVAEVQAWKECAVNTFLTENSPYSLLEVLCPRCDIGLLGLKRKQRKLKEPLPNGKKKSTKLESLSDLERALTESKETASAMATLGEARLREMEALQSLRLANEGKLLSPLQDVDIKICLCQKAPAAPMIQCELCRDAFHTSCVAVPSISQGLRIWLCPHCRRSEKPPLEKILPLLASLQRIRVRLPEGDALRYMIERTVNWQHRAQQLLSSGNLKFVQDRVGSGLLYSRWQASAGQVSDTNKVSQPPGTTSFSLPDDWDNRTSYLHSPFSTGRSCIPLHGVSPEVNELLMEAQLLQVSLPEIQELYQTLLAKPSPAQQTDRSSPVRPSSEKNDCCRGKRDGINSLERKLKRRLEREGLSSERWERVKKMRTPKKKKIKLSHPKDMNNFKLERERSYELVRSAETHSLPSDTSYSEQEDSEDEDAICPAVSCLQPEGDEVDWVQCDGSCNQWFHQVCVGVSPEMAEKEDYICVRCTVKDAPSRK

Structure (SMILES)	Potency
O=c1oc2c(CN3CCOCC3)c(O)ccc2cc1-c1ccccc1	inconclusive: 1.78 µM [inhibitor, partial curve, poor fit]
CCN(CC)S(=O)(=O)c1ccc(N/N=C(\C)c2ccc(OC)cc2O)nc1	inconclusive: 22.4 µM [inhibitor, partial curve, poor fit]
CC(C)(C)CN1CCNc2cc(Nc3ccccc3)ncc2C1	inconclusive: 39.8 µM [inhibitor, partial curve]
COc1ccc(CNC(=O)c2ccc(NC(=O)N3CCSc4nc(C)cc(C)c43)cc2)c(OC)c1	inactive
CCC1CCCCN1C(=O)Cn1c(=O)n(Cc2ccc3c(c2)OCO3)c(=O)c2sccc21 (centres undefined)	inactive
Cc1ccc(NC(=O)c2ccc(-c3ccccc3)s2)cc1	inconclusive: 28.2 µM [inhibitor, partial curve, poor fit]
CCSc1ncc(CN2CCN(c3ccc4nccn4n3)CC2)cn1	active: 28.2 µM
COc1ccc(OC)c(NC(=O)c2nnn(CC(=O)Nc3ccc(C(C)C)cc3)c2N)c1	inconclusive: 22.4 µM [inhibitor, partial curve, poor fit]
O=C(NCCc1cccs1)c1cccc2c1CCN2C(=O)Nc1ccc(F)cc1	inconclusive: 31.6 µM [inhibitor, single point]
O=C(NCc1ccc(F)cc1)c1nc(-c2cccc(C(F)(F)F)c2)c2cnccn12	active: 28.2 µM
COc1cc(/C=C2/NC(=O)NC2=O)cc(I)c1OCc1cccc(C(=O)O)c1	inactive
CCCCc1cc(C[C@H]2CNCC[C@H]2CC(=O)N(C)Cc2ccccc2)no1	inactive
CN1CCN(c2ccc3ncc(Nc4ccc(OC(F)(F)F)cc4)n3n2)CC1	active: 31.6 µM
CCc1ccccc1-n1nnnc1SCC(=O)Nc1ccc2nccnc2c1	inconclusive: 28.2 µM [inhibitor, partial curve, poor fit]
Cc1ccc(-n2cccn2)c(-c2nccn2-c2ccc(C(N)=O)cc2)c1	inconclusive: 25.1 µM [inhibitor, partial curve]
Cc1cc(N2C(=O)C(=O)/C(=C(/O)c3ccc(Br)cc3)C2c2cccc(O)c2)no1 (centres undefined)	inactive
O=C1CCC/C(=N/NC(=O)c2ccc(CSc3ccc(Cl)cc3)cc2)C1	inactive
CSc1cccc(N2CC(C(=O)Nc3cc(Cl)ccc3-n3cncn3)CC2=O)c1 (centres undefined)	inactive
O=C(c1ccc2cc[nH]c2c1)N1CCCN(c2cc(-c3ccc(Cl)cc3)[nH]n2)CC1	inconclusive: 17.8 µM [inhibitor, partial curve, poor fit]
